Experimental data taken from patent US20100099731A1, “Use of Endothelial Interrupters in the Treatment of Neurodegenerative Diseases” (Texas Tech University System, priority 2008, published 2010).

System: cerebral cortical cultures or differentiated PCl2 cells
Experiment: Thrombin-evoked apoptosis and necrosis in neuronal cultures
[1] = apoptosis and necrosis examined in the same well

With thrombin the apoptosis [1] was “significant apoptotic effect”, the necrosis [1] was “little effect on necrosis” and the nucleosome accumulation (primary cortical cell cultures and differentiated PCl2 cells, compared with the other mediators tested) was “highest level of nucleosome accumulation”.
